# Laboratory results reported in publication PMC4336329 (PLoS ONE, 2015).
# The campaign covered roughly 310,000 compounds. About 14,000 (4.5%) showed an effect of 50% or more. Effects have a minus sign here. Some of the results follow.
# Target: human ether-à-go-go-related gene (hERG) potassium channel (human, UniProt Q12809)
# Experiment: primary screen, population patch clamp on CHO cells stably expressing hERG
# 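Note: peak tail current of the secondary pulse compared with the same well before compound.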
# human ether-à-go-go-related gene (hERG) potassium channel, sequence (Q12809 whole entry, looked up): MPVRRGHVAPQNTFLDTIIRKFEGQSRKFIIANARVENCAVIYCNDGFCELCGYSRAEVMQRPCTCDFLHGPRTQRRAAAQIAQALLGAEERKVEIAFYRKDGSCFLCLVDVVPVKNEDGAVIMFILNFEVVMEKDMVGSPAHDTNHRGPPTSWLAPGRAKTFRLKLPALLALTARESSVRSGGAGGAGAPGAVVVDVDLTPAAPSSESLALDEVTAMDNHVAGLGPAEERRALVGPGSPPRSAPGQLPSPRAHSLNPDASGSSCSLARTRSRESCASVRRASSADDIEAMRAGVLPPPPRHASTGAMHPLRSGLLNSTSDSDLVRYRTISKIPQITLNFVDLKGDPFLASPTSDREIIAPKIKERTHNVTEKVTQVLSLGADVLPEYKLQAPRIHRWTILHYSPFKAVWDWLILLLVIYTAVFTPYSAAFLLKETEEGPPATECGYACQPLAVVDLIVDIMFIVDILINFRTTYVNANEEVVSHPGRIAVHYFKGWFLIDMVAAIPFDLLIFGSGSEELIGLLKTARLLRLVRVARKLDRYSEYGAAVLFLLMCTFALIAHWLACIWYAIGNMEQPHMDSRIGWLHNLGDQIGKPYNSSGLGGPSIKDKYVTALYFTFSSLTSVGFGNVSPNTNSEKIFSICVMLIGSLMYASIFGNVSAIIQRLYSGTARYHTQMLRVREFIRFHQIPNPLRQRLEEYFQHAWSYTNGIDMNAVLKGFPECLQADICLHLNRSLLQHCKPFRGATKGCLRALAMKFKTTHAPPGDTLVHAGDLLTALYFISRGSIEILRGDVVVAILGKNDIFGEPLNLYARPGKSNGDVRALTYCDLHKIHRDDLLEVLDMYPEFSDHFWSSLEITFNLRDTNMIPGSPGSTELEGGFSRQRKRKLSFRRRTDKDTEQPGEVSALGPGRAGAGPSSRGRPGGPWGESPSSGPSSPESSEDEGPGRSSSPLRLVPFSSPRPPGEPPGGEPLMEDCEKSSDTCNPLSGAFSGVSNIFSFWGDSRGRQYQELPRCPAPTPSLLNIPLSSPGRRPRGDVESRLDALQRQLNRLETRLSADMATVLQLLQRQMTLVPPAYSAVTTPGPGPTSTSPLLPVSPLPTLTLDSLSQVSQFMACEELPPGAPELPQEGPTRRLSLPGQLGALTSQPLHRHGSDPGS
row,SMILES,"hERG current change (%, negative = inhibition) at 10uM"
1,Cc1n[nH]c(=O)c2c(NC(=O)CSc3ccccc3F)oc(C)c12,-7.96%
2,CC(c1nnc(SCC(=O)Nc2cc([N+](=O)[O-])ccc2F)n1Cc1ccccc1)N(C)C (centres unmarked),-35.1%
3,CC1(C)C(c2ccccc2)=NC(c2ccccc2)N1O (centres unmarked),-6.51%
4,COc1cccc(N=C2NC(=O)/C(=C/c3cc([N+](=O)[O-])ccc3O)S2)c1,12.5%
5,OCCC1CN(Cc2cccn2-c2cccnc2)CCN1CCc1ccccc1 (centres unmarked),-65.2%
6,CCc1ccccc1NC(=O)CSc1nnc(-c2ccco2)n1N,0.385%
7,CCOC(=O)c1cc(-c2nnc(-c3ccc(Oc4ccccc4)cc3)o2)c(C)nc1C,14.4%
8,O=C(Nc1cc(Cl)ccc1-n1cncn1)c1ccc(F)c(S(=O)(=O)N2CCOCC2)c1,-44.6%
9,CN(CC(=O)Nc1ccc(Cl)cc1)C(=O)c1ccc(N2CCCC2=O)cc1,-16%
10,Cc1ccccc1OCC(=O)NC(=S)Nc1ccc(N2CCOCC2)c(Cl)c1,15.3%
11,CN1CCN(C(=O)C2CC(=O)N(c3ccc(F)c(Cl)c3)C2)CC1 (centres unmarked),9.66%
12,Cc1ccc(Nc2nc(-c3c(C)n(C)n(-c4ccccc4)c3=O)c(C)s2)cc1,-6.75%
13,COc1cc(/C=N/NC(=O)c2cccnc2)ccc1OS(=O)(=O)c1ccc(C)cc1,8.29%
14,CCn1c(SCC(=O)N/N=C/C=C/c2ccco2)nnc1-c1ccccc1,-34.7%
15,CC(C)C(=O)Nc1ccc(NC(=O)c2ccco2)cn1,6.73%
16,CCOc1c(Br)cc(Br)cc1/C=C1\SC(N)=NC1=O,24.2%
17,CN(C)CCN1C(=O)c2oc3ccccc3c(=O)c2C1c1ccc(F)cc1 (centres unmarked),-16.3%
18,N#CC1=C(N)OC2=C(CCc3ccccc32)C1c1ccccc1 (centres unmarked),1.76%
19,Cc1ccc(C(=O)C(=O)c2ccc(C)c(N)c2)cc1N,-9.9%
20,Nc1nonc1C(=O)N1CCCCC1,29.7%
21,CC(C)n1c(N2CCN(C(=O)c3cccs3)CC2)nc2ccccc21,-49.2%
22,COc1ccc(Cc2nc3ccc(C(=O)NCC4CCOCC4)cc3o2)cc1OC,14.4%
23,CCC(Oc1ccccc1)C(=O)Nc1cc(C)on1 (centres unmarked),-8.56%

row,SMILES,"hERG current change (%, negative = inhibition) at 10uM"
1,CC(C1CC1)N(Cc1ccccc1)C(=S)Nc1ccccc1Cl (centres unmarked),47.9%
2,COc1cc(C(=O)NCC(=O)NCCN2C(=O)S/C(=C\c3ccc4c(c3)OCO4)C2=O)cc(OC)c1OC,-8.37%
3,Clc1ccc(-c2nc(-c3cnccn3)no2)cc1,8.67%
4,CC(Sc1nc(N2CCCCC2)c2c(c1C#N)CCCC2)C(=O)O (centres unmarked),17.5%
5,N#CC1=C2C=Cc3ccccc3N2CCCC1=O,4.37%
6,CC(C)(C)NC(=O)CC(CC(=O)O)c1ccccc1 (centres unmarked),13.9%
7,Cc1nn(C(C)C(=O)N2CCc3ccccc3C2)c(=O)c2cc3occc3n12 (centres unmarked),-13.3%
8,CCOc1ccc(N=C2NC(=O)S/C2=C\c2ccc(N(C)C)cc2)cc1,-7.87%
9,O=C(NCc1ccccn1)Nc1ccc(F)cc1F,1.51%
10,Cc1nc(NS(=O)(=O)c2ccccc2)sc1NC(=O)Nc1ccc(Cl)cc1,16.9%
11,Cc1ccccc1-n1c(Cn2c(=O)sc3ccccc32)nnc1SCC(=O)N1CCCC1,-2.52%
12,CON1C(=O)C(=O)N(OC)C(C)(C)C1(C)C,0.346%
13,CCN1CCN(C(=O)Cn2ncc3c2-c2ccccc2OC3)CC1,-10.1%
14,CCOC(=O)/C(C(=O)Nc1ccc(Cl)cc1Cl)=C1/NC(C)(C)Cc2ccccc21,4.48%
15,CCOC(=O)CN1C(=O)N[C@@H](c2ccco2)C(C(=O)OC)=C1C,17.3%
16,COC(=O)[C@@]1(Cc2ccc(OC)cc2)[C@H]2c3cc(C(=O)N(C)C)n(C[C@H](O)CO)c3C[C@H]2CN1C(=O)c1ccccc1,22.5%
17,COc1ccc(C(=O)CSc2nnc(CNC(=O)c3ccccc3)o2)cc1,-12.9%
18,CCS(=O)(=O)Nc1cc2c3c(c1)CCN3C(=O)CC2,22.9%
19,COc1ccc(OCc2nnc(SCC(=O)N3CCCC3)o2)cc1,8.77%
20,COC(=O)COC(=O)CC(CC(N)=O)c1ccccc1 (centres unmarked),15.5%
21,O=C(/C=C/c1cccs1)N1CCC2(CC1)Oc1ccc(Cl)cc1C(=O)C21CC(c2cccnc2)=NO1 (centres unmarked),8.6%
22,O=C(CCCCCCCCN1C(=O)c2ccccc2C1=O)N1CCOCC1,10%
23,CCOc1c(S(=O)(=O)NC2CC(C)(C)NC(C)(C)C2)ccc(Cl)c1Cl,2.46%

row,SMILES,"hERG current change (%, negative = inhibition) at 10uM"
1,O=C(C1c2ccccc2C(=O)N2CCc3ccccc3C12)N1CCC2(CC1)OCCO2 (centres unmarked),4.88%
2,Cc1ccc(C(=O)COC(=O)Cc2ccccc2)cc1,22.6%
3,Cc1ccc(OCC(=O)c2ccc3c(c2)CCCC3)cc1C,4.7%
4,O=C(Nc1ccc(F)cc1)c1cccnn1,-20%
5,O=C(N/N=C/c1cc(Br)ccc1O)c1ccccc1Cl,10.3%
6,Nc1nnc(-c2ccco2)s1,10.6%
7,COc1ccc(C)cc1NC(=O)c1ccc2c(c1)C(=O)N(Cc1ccncc1)C2=O,-15.7%
8,CCCCCc1nc(N)c(C#N)c(-c2ccco2)c1CCCC,12%
9,O=C(CN1C(=O)S/C(=C\c2ccccn2)C1=O)Nc1ccc(F)cc1,11.3%
10,Cc1nn(CC(=O)Nc2cccc(C(F)(F)F)c2)c(=O)c2cccn12,-8.79%
11,O=C(OCC(=O)N1CCOCC1)c1ccc(F)cc1Cl,36.8%
12,O=C(Nc1ccc(Cl)cn1)c1ccc2c(c1)OCCO2,-47.3%
13,COc1ccc(-c2cc(-c3c(O)c(OC)c4occc4c3OC)[nH]n2)cc1,6.03%
14,CN(C)c1ccc(C(C[N+](=O)[O-])c2c(N)n(C)c(=O)n(C)c2=O)c(F)c1C#N (centres unmarked),-1.17%
15,CCOC(=O)N1CCN(c2cc(=O)n(C)c(=O)n2C)CC1,15.6%
16,Cc1ccnc(NS(=O)(=O)c2cc(C(F)(F)F)ccc2Cl)c1,3.13%
17,O=S(=O)(NC1CCCCCCC1)c1cccs1,-34.4%
18,O=C(O)CCCC(=O)OCc1c(-c2ccccc2)ncc2ccccc12,10%
19,Cn1c(N2CCN(c3ccccn3)CC2)nc2c1c(=O)n(Cc1ccc(Cl)cc1)c(=O)n2C,-18%
20,CCc1ccc(Nc2n[n+](-c3ccccc3)c(-c3cc(OC)c(OC)cc3Br)s2)cc1.[Cl-],-55%
21,CCOC(=O)N1CCN(Cc2nc3cc(NC(=O)CC(C)C)ccc3n2CC)CC1,-8.18%
22,CN1CCCN(C(=O)c2ccccc2Cl)CC1,4.84%
23,COc1nc(-c2ccccc2)ccc1-c1noc(-c2ccco2)n1,6.02%

row,SMILES,"hERG current change (%, negative = inhibition) at 10uM"
1,COc1ccc(CCn2c(N)c(C#N)c3nc4ccccc4nc32)cc1OC,4.14%
2,Cc1cc(C(F)(F)F)c(C#N)c(SCC(=O)NC2CC2)n1,-4.11%
3,N#Cc1cnn(CC2CCCCC2)c1N,14%
4,O=C(CN(c1ccccc1)S(=O)(=O)c1ccccc1)N/N=C/c1ccco1,-21.8%
5,CCOC(=O)c1ccc(NC(=O)CSc2nc(C)nc3c2c(=O)n(C)c(=O)n3C)cc1,-24.3%
6,CC1(C)OC1COc1c2occc2cc2ccc(=O)oc12 (centres unmarked),9.88%
7,Cc1ccc2c(c1)N(CC(=O)NC1CCCC(C)C1C)C(=O)c1cccnc1O2 (centres unmarked),-10.6%
8,CCCCN(CC)Cc1c(O)ccc2c(-c3ccccc3)cc(=O)oc12,-17.7%
9,COC(=O)CSc1nc(-c2ccc(F)cc2)cc(C(F)(F)F)n1,11.9%
10,OC1(c2ccccc2Cl)NN=C2CCCCCN21 (centres unmarked),14.9%
11,CCOC(=O)C1CCCN(C(=O)c2ccc3c(c2)N(C)C(=O)/C(=C/c2ccccc2Cl)S3)C1 (centres unmarked),-10.1%
12,CCOc1ccc(NC(=O)CN(C)C(=O)CC(NC(=O)c2ccccc2)c2ccccc2)cc1OCC (centres unmarked),-51.9%
13,COc1ccc(C(=O)NCC(C)NC(=O)c2ccc(OC)c(Br)c2)cc1Br (centres unmarked),4.83%
14,CCCc1nc2ccccc2c(C(=O)OC2CCOC2=O)c1CC (centres unmarked),-15.1%
15,CS(=O)(=O)c1ccc(C(=O)Nc2cccc(-c3nc4ccccc4[nH]3)c2)cc1,16%
16,O=C1c2ccccc2C(=O)N1CCCc1nc(-c2ccncc2)no1,-3.72%
17,Cc1ccc(-n2c(C)cn(C(=O)c3ccccc3)c2=S)cc1,-4.31%
18,O=C(COc1ncnc2ccc(Br)cc12)N1CCOCC1,-4.95%
19,Cc1cc(C)c(C)c(S(=O)(=O)N2CCNCC2)c1C,49.5%
20,CCCCn1c(O)c(N=NC(=O)Cn2c(C(F)(F)F)nc3ccccc32)c2ccccc21,10.2%
